Results reported in the supplement of paper PMC4967469.
IC50 is the fitted dose that halves viability relative to control wells, and lower means more sensitive; a limit (>, <) means that the fit lies beyond the doses tested. AUC sums up the same curve from the lowest dose to the 256-fold higher top dose: 1 means no effect, lower means more sensitive. For part of these data: An inferred top dose was derived from the fitted curves, not read from the paper.

Assays:
Assay in all cases: Viability of human cancer cell lines after 72 h of drug (GDSC screen)
[1] = compound: O=C(CCCCCCC(=O)Nc1ccccc1)NO [Vorinostat]; details: top dose 10 µM
Method: (§1)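 Human cancer cell lines in 384-well plates, medium with 10% serum, drug for 72 h over a 256-fold dose range (nine 2-fold or five 4-fold steps up to the top dose). Adherent lines were fixed and stained with the nucleic acid dye Syto60, suspension lines read with resazurin; signal relative to control wells, capped at 0 and 100%. One two-parameter sigmoid per drug and line, fitted in a mixed model over all curves with the slope shared within a line.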

[2] = compound: CN(Cc1cnc2nc(N)nc(N)c2n1)c1ccc(C(=O)N[C@@H](CCC(=O)O)C(=O)O)cc1 [Methotrexate]; details: top dose 0.2 µM
Method: as §1

[3] = compound: CNC(=O)c1ccccc1Sc1ccc2c(/C=C/c3ccccn3)n[nH]c2c1 [Axitinib]; details: top dose 2 µM
Method: as §1

[4] = compound: CC(C)(C)c1nc(-c2cccc(NS(=O)(=O)c3c(F)cccc3F)c2F)c(-c2ccnc(N)n2)s1 [Dabrafenib]; details: top dose 10 µM
Method: as §1

[5] = compound: CCc1c2c(nc3ccc(O)cc13)-c1cc3c(c(=O)n1C2)COC(=O)[C@]3(O)CC [SN-38]; details: top dose 0.05 µM; top dose inferred
Method: as §1

Cell Line	AUC [1]	IC50 [1] [µM]	AUC [2]	IC50 [2] [µM]	AUC [3]	IC50 [3] [µM]	AUC [4]	IC50 [4] [µM]	AUC [5]	IC50 [5] [µM]
KYSE-450 (oesophagus, adherent)	0.753	3.17	0.717	0.0494	0.974	> 2	0.983	> 10	–	–
DB (B-cell lymphoma, suspension)	0.457	0.469	0.636	0.0312	0.938	> 2	–	–	0.532	0.00385
KGN (ovary, adherent)	0.842	9.37	0.852	> 0.2	0.96	> 2	–	–	0.457	0.00233
CAL-33 (head and neck, adherent)	0.592	1.12	0.95	> 0.2	0.886	> 2	–	–	0.496	0.00304
P30-OHK (lymphoblastic leukaemia, suspension)	0.525	0.721	0.554	0.0171	0.912	> 2	–	–	0.429	0.00207
EBC-1 (lung squamous cell carcinoma, adherent)	0.682	2.17	0.982	> 0.2	0.965	> 2	–	–	0.356	0.00118
BB65-RCC (kidney, adherent)	0.75	3.7	0.98	> 0.2	0.91	> 2	–	–	0.477	0.00268
WM-115 (melanoma, adherent)	0.725	3.2	0.923	> 0.2	0.961	> 2	–	–	0.817	0.0364
NB6 (neuroblastoma, adherent)	0.69	2.43	0.984	> 0.2	0.96	> 2	–	–	0.982	> 0.05
PCI-4B (head and neck, adherent)	0.536	0.779	0.789	0.0837	0.937	> 2	–	–	0.479	0.00275
DMS-273 (small cell lung carcinoma, adherent)	0.715	2.64	0.965	> 0.2	0.891	> 2	–	–	0.598	0.00591
KYSE-410 (oesophagus, adherent)	0.613	1.31	0.608	0.0253	0.889	> 2	–	–	0.789	0.0238
NCI-H1792 (lung adenocarcinoma, adherent)	0.774	3.54	0.814	0.0959	0.956	> 2	–	–	0.86	0.0353
IGR-1 (melanoma, adherent)	0.84	5.69	0.97	> 0.2	0.967	> 2	–	–	0.769	0.0166
A2058 (melanoma, adherent)	0.82	4.96	0.959	> 0.2	0.989	> 2	–	–	0.396	0.00167
DU-4475 (breast, suspension)	0.535	0.762	0.912	0.195	0.95	> 2	–	–	0.708	0.0106
PANC-04-03 (pancreas, adherent)	0.845	> 10	0.94	> 0.2	0.977	> 2	–	–	0.871	> 0.05
NOS-1 (osteosarcoma, adherent)	0.652	1.82	0.931	> 0.2	0.905	> 2	–	–	0.882	> 0.05
MZ2-MEL (melanoma, adherent)	0.678	2.15	0.981	> 0.2	0.855	> 2	–	–	0.841	0.0437
OCI-LY7 (B-cell lymphoma, suspension)	0.441	0.451	0.993	> 0.2	0.904	1.31	–	–	0.932	0.0409
NB14 (neuroblastoma, adherent)	0.407	0.354	0.738	0.057	0.736	0.561	–	–	0.461	0.00247
D-566MG (glioma, adherent)	0.564	0.935	0.984	> 0.2	0.846	1.42	–	–	0.51	0.00332
IPC-298 (melanoma, adherent)	0.802	4.82	0.976	> 0.2	0.986	> 2	–	–	0.72	0.013
MOG-G-UVW (glioma, adherent)	0.577	1.01	0.973	> 0.2	0.896	> 2	–	–	0.404	0.00172
SK-LMS-1 (soft tissue, adherent)	0.665	1.76	0.975	> 0.2	0.895	> 2	–	–	0.345	0.00119
RPMI-8866 (chronic myeloid leukaemia, suspension)	0.374	0.289	0.429	0.00811	0.847	1.31	0.935	> 10	–	–
NEC8 (testis, adherent)	0.404	0.355	0.888	0.166	0.788	0.734	–	–	0.706	0.0107
BB30-HNC (head and neck, adherent)	0.715	2.49	0.914	> 0.2	0.912	> 2	–	–	0.511	0.00334
Hs939-T (melanoma, adherent)	0.721	2.84	0.986	> 0.2	0.94	> 2	–	–	0.862	0.0494
HT-1080 (fibrosarcoma, adherent)	0.74	2.77	0.986	> 0.2	0.973	> 2	–	–	0.277	0.00079
